Where a chain is given by its changes, count along the chain named. The list shows a part of the results.
T1: RBFOX1 RRM (Homo sapiens, UniProt Q9NWB1 109-208)
T1 sequence: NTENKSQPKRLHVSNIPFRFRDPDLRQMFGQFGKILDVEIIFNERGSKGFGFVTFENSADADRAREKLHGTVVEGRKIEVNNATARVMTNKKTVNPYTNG

B1: AGCGUCU (DNA:RNA)
RNA: GGGAGACCGGAAUUCAGAUUGUCCAGCGUCUUUAAAUCCCGUCGUAGCCACCA
DNA 1: CAATCTGAATTCCGGTCTCCC
DNA 2: TGGTGGCTACGACGGGATT
B2: GGAAGGC (DNA:RNA)
RNA: B1 RNA with A25G, C27A, G28A, U29G, C30G, U31C
DNA 1: CAATCTGAATTCCGGTCTCCC
DNA 2: TGGTGGCTACGACGGGATT
B3: GAAAAGC (DNA:RNA)
RNA: GGGAGACCGGAAUUCAGAUUGUCCGAAAAGCUUAAAUCCCGUCGUAGCCACCA
DNA 1: CAATCTGAATTCCGGTCTCCC
DNA 2: TGGTGGCTACGACGGGATT
B4: UUUGCUU (DNA:RNA)
RNA: B1 RNA with A25U, G26U, C27U, U29C, C30U
DNA 1: CAATCTGAATTCCGGTCTCCC
DNA 2: TGGTGGCTACGACGGGATT
B5: CGUCUAC (DNA:RNA)
RNA: B1 RNA with A25C, C27U, G28C, C30A, U31C
DNA 1: CAATCTGAATTCCGGTCTCCC
DNA 2: TGGTGGCTACGACGGGATT
B6: GCUGGCU (DNA:RNA)
RNA: B1 RNA with A25G, G26C, C27U, U29G
DNA 1: CAATCTGAATTCCGGTCTCCC
DNA 2: TGGTGGCTACGACGGGATT
B7: UAUAUUG (DNA:RNA)
RNA: B3 RNA with G25U, A27U, A29U, G30U, C31G
DNA 1: CAATCTGAATTCCGGTCTCCC
DNA 2: TGGTGGCTACGACGGGATT
B8: AACGCCU (DNA:RNA)
RNA: B1 RNA with G26A, U29C
DNA 1: CAATCTGAATTCCGGTCTCCC
DNA 2: TGGTGGCTACGACGGGATT
B9: GCUAUUG (DNA:RNA)
RNA: B3 RNA with A26C, A27U, A29U, G30U, C31G
DNA 1: CAATCTGAATTCCGGTCTCCC
DNA 2: TGGTGGCTACGACGGGATT
B10: AUGCCCU (DNA:RNA)
RNA: B1 RNA with G26U, C27G, G28C, U29C
DNA 1: CAATCTGAATTCCGGTCTCCC
DNA 2: TGGTGGCTACGACGGGATT
B11: UAGGACG (DNA:RNA)
RNA: B1 RNA with A25U, G26A, C27G, U29A, U31G
DNA 1: CAATCTGAATTCCGGTCTCCC
DNA 2: TGGTGGCTACGACGGGATT
B12: CGCACGA (DNA:RNA)
RNA: B1 RNA with A25C, G28A, U29C, C30G, U31A
DNA 1: CAATCTGAATTCCGGTCTCCC
DNA 2: TGGTGGCTACGACGGGATT
B13: CCAGGAG (DNA:RNA)
RNA: B1 RNA with A25C, G26C, C27A, U29G, C30A, U31G
DNA 1: CAATCTGAATTCCGGTCTCCC
DNA 2: TGGTGGCTACGACGGGATT
B14: CGUUGCA (DNA:RNA)
RNA: B1 RNA with A25C, C27U, G28U, U29G, U31A
DNA 1: CAATCTGAATTCCGGTCTCCC
DNA 2: TGGTGGCTACGACGGGATT
B15: UACGUUG (DNA:RNA)
RNA: B1 RNA with A25U, G26A, C30U, U31G
DNA 1: CAATCTGAATTCCGGTCTCCC
DNA 2: TGGTGGCTACGACGGGATT
B16: GCAUCAU (DNA:RNA)
RNA: B3 RNA with A26C, A28U, A29C, G30A, C31U
DNA 1: CAATCTGAATTCCGGTCTCCC
DNA 2: TGGTGGCTACGACGGGATT
B17: AUCUAAC (DNA:RNA)
RNA: B1 RNA with G26U, G28U, U29A, C30A, U31C
DNA 1: CAATCTGAATTCCGGTCTCCC
DNA 2: TGGTGGCTACGACGGGATT
B18: AGAGUGU (DNA:RNA)
RNA: B1 RNA with C27A, C30G
DNA 1: CAATCTGAATTCCGGTCTCCC
DNA 2: TGGTGGCTACGACGGGATT
B19: UUAACUC (DNA:RNA)
RNA: B3 RNA with G25U, A26U, A29C, G30U
DNA 1: CAATCTGAATTCCGGTCTCCC
DNA 2: TGGTGGCTACGACGGGATT
B20: GCCCUAC (DNA:RNA)
RNA: B1 RNA with A25G, G26C, G28C, C30A, U31C
DNA 1: CAATCTGAATTCCGGTCTCCC
DNA 2: TGGTGGCTACGACGGGATT
B21: GACAAAU (DNA:RNA)
RNA: B3 RNA with A27C, G30A, C31U
DNA 1: CAATCTGAATTCCGGTCTCCC
DNA 2: TGGTGGCTACGACGGGATT
B22: GACCGGG (DNA:RNA)
RNA: B3 RNA with A27C, A28C, A29G, C31G
DNA 1: CAATCTGAATTCCGGTCTCCC
DNA 2: TGGTGGCTACGACGGGATT
B23: UGUGCCU (DNA:RNA)
RNA: B1 RNA with A25U, C27U, U29C
DNA 1: CAATCTGAATTCCGGTCTCCC
DNA 2: TGGTGGCTACGACGGGATT
B24: AAACCAA (DNA:RNA)
RNA: B3 RNA with G25A, A28C, A29C, G30A, C31A
DNA 1: CAATCTGAATTCCGGTCTCCC
DNA 2: TGGTGGCTACGACGGGATT
B25: CGCUCUU (DNA:RNA)
RNA: B1 RNA with A25C, G28U, U29C, C30U
DNA 1: CAATCTGAATTCCGGTCTCCC
DNA 2: TGGTGGCTACGACGGGATT
B26: CACAUCA (DNA:RNA)
RNA: B1 RNA with A25C, G26A, G28A, U31A
DNA 1: CAATCTGAATTCCGGTCTCCC
DNA 2: TGGTGGCTACGACGGGATT
B27: CGCAUUG (DNA:RNA)
RNA: B1 RNA with A25C, G28A, C30U, U31G
DNA 1: CAATCTGAATTCCGGTCTCCC
DNA 2: TGGTGGCTACGACGGGATT
B28: AGGUGGG (DNA:RNA)
RNA: B1 RNA with C27G, G28U, U29G, C30G, U31G
DNA 1: CAATCTGAATTCCGGTCTCCC
DNA 2: TGGTGGCTACGACGGGATT
B29: GCUUUAG (DNA:RNA)
RNA: B1 RNA with A25G, G26C, C27U, G28U, C30A, U31G
DNA 1: CAATCTGAATTCCGGTCTCCC
DNA 2: TGGTGGCTACGACGGGATT
B30: CCAAUAC (DNA:RNA)
RNA: B3 RNA with G25C, A26C, A29U, G30A
DNA 1: CAATCTGAATTCCGGTCTCCC
DNA 2: TGGTGGCTACGACGGGATT
B31: CGACGUA (DNA:RNA)
RNA: B1 RNA with A25C, C27A, G28C, U29G, C30U, U31A
DNA 1: CAATCTGAATTCCGGTCTCCC
DNA 2: TGGTGGCTACGACGGGATT

molecular target: T1, RBFOX1 RRM; test: EMSA; HiTS-Eq, 1 nM pool, 10 min; buffer printed only for the single-RNA assays: 10 mM Tris pH 7.5, 150 mM NaCl, 3.4 mM EDTA, 0.001% NP-40, 30 C; conditions: tags: His6 N-terminal (pET28a); label: 5' 32P
Method in brief: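 Purified wild-type or mutant RbFox RRM at increasing concentrations was equilibrated with 1 nM of 5′-radiolabelled RNA carrying 7 randomized nucleotides for 10 min in 50 µL. Unbound RNA was separated by 8% native PAGE and sequenced. Relative association constants came from read-count changes of each RNA species compared with the control reaction, normalised to the cognate motif.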

| Binder | binding signal |
| --- | --- |
| B1 | 0.0079 KA relative to UGCAUGU |
| B2 | 0.00795 KA relative to UGCAUGU |
| B3 | 0.00277 KA relative to UGCAUGU |
| B4 | 0.0228 KA relative to UGCAUGU |
| B5 | 0.0022 KA relative to UGCAUGU |
| B6 | 0.0261 KA relative to UGCAUGU |
| B7 | 0.0186 KA relative to UGCAUGU |
| B8 | 0.00525 KA relative to UGCAUGU |
| B9 | 0.0132 KA relative to UGCAUGU |
| B10 | 0.00532 KA relative to UGCAUGU |
| B11 | 0.00709 KA relative to UGCAUGU |
| B12 | 0.0204 KA relative to UGCAUGU |
| B13 | 0.0104 KA relative to UGCAUGU |
| B14 | 0.0228 KA relative to UGCAUGU |
| B15 | 0.0217 KA relative to UGCAUGU |
| B16 | 0.0109 KA relative to UGCAUGU |

| Binder | binding signal |
| --- | --- |
| B17 | 0.00288 KA relative to UGCAUGU |
| B18 | 0.0147 KA relative to UGCAUGU |
| B19 | 0.00361 KA relative to UGCAUGU |
| B20 | 0.00603 KA relative to UGCAUGU |
| B21 | 0.00361 KA relative to UGCAUGU |
| B22 | 0.0106 KA relative to UGCAUGU |
| B23 | 0.0188 KA relative to UGCAUGU |
| B24 | 0.000302 KA relative to UGCAUGU |
| B25 | 0.00912 KA relative to UGCAUGU |
| B26 | 0.00161 KA relative to UGCAUGU |
| B27 | 0.0131 KA relative to UGCAUGU |
| B28 | 0.0126 KA relative to UGCAUGU |
| B29 | 0.0126 KA relative to UGCAUGU |
| B30 | 0.00204 KA relative to UGCAUGU |
| B31 | 0.00872 KA relative to UGCAUGU |

Reference: paper PMC9911399, “Two distinct binding modes provide the RNA-binding protein RbFox with extraordinary sequence specificity”
